Measured values taken from paper PMC4336329 (PLoS ONE, 2015).
The whole screen tested about 310,000 compounds, of which about 2,200 (0.71%) showed an effect of 50% or more. The effect is printed as a negative number. The list shows a part of the results.

Each compound was assayed against human ether-à-go-go-related gene (hERG) potassium channel (human, UniProt Q12809) (assay: primary screen, population patch clamp on CHO cells stably expressing hERG).
Chain of human ether-à-go-go-related gene (hERG) potassium channel (Q12809 whole entry, looked up): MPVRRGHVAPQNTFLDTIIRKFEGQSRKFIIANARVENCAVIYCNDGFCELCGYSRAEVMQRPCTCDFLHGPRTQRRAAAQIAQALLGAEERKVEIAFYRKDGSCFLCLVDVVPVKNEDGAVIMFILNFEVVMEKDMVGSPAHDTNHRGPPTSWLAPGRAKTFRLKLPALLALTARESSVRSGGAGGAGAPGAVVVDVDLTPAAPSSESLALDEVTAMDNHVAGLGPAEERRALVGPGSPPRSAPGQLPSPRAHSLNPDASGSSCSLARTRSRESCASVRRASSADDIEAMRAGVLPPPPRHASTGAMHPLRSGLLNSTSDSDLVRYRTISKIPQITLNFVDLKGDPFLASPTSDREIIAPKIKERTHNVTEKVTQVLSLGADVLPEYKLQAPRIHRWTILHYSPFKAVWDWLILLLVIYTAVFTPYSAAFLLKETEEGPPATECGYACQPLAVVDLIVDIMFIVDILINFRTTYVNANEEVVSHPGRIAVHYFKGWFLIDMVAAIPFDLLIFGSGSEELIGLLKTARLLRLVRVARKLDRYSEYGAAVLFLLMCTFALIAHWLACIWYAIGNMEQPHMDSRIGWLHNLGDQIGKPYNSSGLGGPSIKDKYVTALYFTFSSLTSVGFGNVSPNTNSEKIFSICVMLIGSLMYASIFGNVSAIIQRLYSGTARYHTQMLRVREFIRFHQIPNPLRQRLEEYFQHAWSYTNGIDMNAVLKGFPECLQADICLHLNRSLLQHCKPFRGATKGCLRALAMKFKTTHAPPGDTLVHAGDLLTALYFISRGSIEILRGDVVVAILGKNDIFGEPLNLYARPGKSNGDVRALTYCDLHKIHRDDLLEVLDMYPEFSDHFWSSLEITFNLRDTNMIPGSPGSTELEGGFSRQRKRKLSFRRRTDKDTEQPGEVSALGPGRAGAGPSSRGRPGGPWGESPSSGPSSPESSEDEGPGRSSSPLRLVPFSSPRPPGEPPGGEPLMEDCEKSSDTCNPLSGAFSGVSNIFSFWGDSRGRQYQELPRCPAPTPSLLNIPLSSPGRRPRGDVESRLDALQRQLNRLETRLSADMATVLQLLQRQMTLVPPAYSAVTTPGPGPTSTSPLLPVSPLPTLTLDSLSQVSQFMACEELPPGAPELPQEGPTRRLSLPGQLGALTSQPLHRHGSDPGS
In the case of CC(C)(C)NC(=O)c1cc(-c2ccc3c(c2)OCO3)nc2ccccc12, the “hERG current change (%, negative = inhibition) at 1uM” value is reported as 11.9%. With COCCSc1nc2c(c(=O)[nH]c(=O)n2C)n1Cc1cccc(C)c1 the “hERG current change (%, negative = inhibition) at 1uM” value was -5.69%. With Cc1occc1-c1nnc(SCC(=O)N(C)C)o1 the “hERG current change (%, negative = inhibition) at 1uM” value was 1.48%. In the case of COc1ccc(C(=O)N/N=C/c2ccc3cccc(OCc4ccccc4)c3n2)cc1, the “hERG current change (%, negative = inhibition) at 1uM” value is reported as 19.3%. For O=C(NNC(=O)C1CCN(Cc2ccccc2)CC1)c1cccs1, the “hERG current change (%, negative = inhibition) at 1uM” value was 10.4%. In the case of Cc1ccc(SCC(=O)Nc2ccc(N3CCOCC3)cc2)cc1, the “hERG current change (%, negative = inhibition) at 1uM” value is reported as 15.7%. In the case of CCOC(=O)C1=C(C)NC(SCC(=O)O)=NC1c1ccccc1 (centres unmarked), the “hERG current change (%, negative = inhibition) at 1uM” value is reported as 4.73%. With O=C(NCC1CCCO1)C1CC(=O)N(c2ccccc2)C1 (centres unmarked) the “hERG current change (%, negative = inhibition) at 1uM” value was 3.98%. With O=C(NNC(=S)Nc1ccccc1Cl)c1ccncc1 the “hERG current change (%, negative = inhibition) at 1uM” value was 8.21%. With O=C(c1cccs1)N1CCCC(N2CCN(c3cccc(C(F)(F)F)c3)CC2)C1 (centres unmarked) the “hERG current change (%, negative = inhibition) at 1uM” value was -8.83%. Cc1ccc(OCc2ccc(C(=O)Nc3nccs3)o2)cc1C was tested, and the “hERG current change (%, negative = inhibition) at 1uM” value was 1.14%. With Cc1cccc(N(CC(=O)NCc2ccco2)C(=O)CCC(=O)Nc2nccs2)c1C the “hERG current change (%, negative = inhibition) at 1uM” value was 16.1%. With COc1ccccc1CNS(=O)(=O)c1ccc(NC(C)=O)cc1 the “hERG current change (%, negative = inhibition) at 1uM” value was -1.75%. With COc1ccc(OC)c(NC(=O)c2ccc3c(c2)C(=O)N(CC2CCCO2)C3=O)c1 (centres unmarked) the “hERG current change (%, negative = inhibition) at 1uM” value was 15%. For O=C1CCCN1C(=O)CSc1nnnn1-c1ccccc1, the “hERG current change (%, negative = inhibition) at 1uM” value was 4.1%. With Cc1ccc(N2C(=O)C3CCCN3C2=S)cc1 (centres unmarked) the “hERG current change (%, negative = inhibition) at 1uM” value was 15.7%. For CCOC(=O)CCCCC(=O)c1[nH]c(=O)[nH]c1CSc1nc(-c2ccccc2)c(C#N)c(=O)[nH]1, the “hERG current change (%, negative = inhibition) at 1uM” value was 15.8%. In the case of O=S(=O)(Nc1ccc(F)cc1)N1CCCCCC1, the “hERG current change (%, negative = inhibition) at 1uM” value is reported as 0.267%. In the case of N#Cc1ccc(S(=O)(=O)NCC(=O)OCC(=O)N2CCCC2=O)cc1, the “hERG current change (%, negative = inhibition) at 1uM” value is reported as 5.65%. In the case of Cc1cc2nc[nH]c2cc1[N+](=O)[O-], the “hERG current change (%, negative = inhibition) at 1uM” value is reported as 7.43%. In the case of CCCCC(SCC(=O)Nc1ccccc1)C(=O)O (centres unmarked), the “hERG current change (%, negative = inhibition) at 1uM” value is reported as 6.96%. O=C(O)C1(c2ccccc2)CCN(S(=O)(=O)c2ccc(Cl)cc2)CC1 was tested, and the “hERG current change (%, negative = inhibition) at 1uM” value was 19.3%. With O=C(O)CCn1c(SCCc2ccccc2)nc2ccccc21 the “hERG current change (%, negative = inhibition) at 1uM” value was 12%. With Cc1ccc(NC2=C(Cl)C(=O)OC2OC(C)C)c(C)c1 (centres unmarked) the “hERG current change (%, negative = inhibition) at 1uM” value was 4.91%. In the case of O=C(O)C1CCCCC1C(=O)NCCc1cccc(Cl)c1 (centres unmarked), the “hERG current change (%, negative = inhibition) at 1uM” value is reported as -9.09%. In the case of O=C(CCCn1c(=S)[nH]c2ccccc2c1=O)N1CCCCC1, the “hERG current change (%, negative = inhibition) at 1uM” value is reported as 0.194%.
